This note sets out measurements from the RNAGym collection of RNA variant scans (doi:10.7554/elife.90254).

B1: LINE1-mini (parent)
chain: GGCAGAGCUCAACACAGCGUGGCAAAGUGGCUGUGGCUAGACUGCC

The source gives no read counts; variants with many changes may rest on few reads.

Variants of B1 are the subject of the series. The series is described as follows: self-cleavage, relative activity (ratio to wild type); higher = more cleavage; in vitro, sequencing; the parent is a self-cleaving ribozyme.
As for GGCAGAGCUCAACACAGCGUGUCGAAGUGGCGGUGCCUAGACUGUC, the self-cleavage amounted to 0.06.
With AGCAGAGCUCAACACCGCGUAGCAAAGUGUCUGUGGCUAGACUGCC the figure was 0.07; with GGCAGAGCUCACCACAGCGUGGCAGAGUGGAUGAGGCUAGACUGCC, 0; with GGCAAAGCUCAACACUGCGUGGCAAAGUUGCUGUGGCUAGACUGCC, 0.15.
As for GGCAGAGCUCAACACAGCGUGGCAAAGUGGCAGUUGCUAGGCUGCC, the self-cleavage worked out at 0.05.
Regarding AGCAGAGCUCAACACAGCGUGACAAAGUGGCUGUGGCUAGACUACC, the self-cleavage is 0.64.
With GGCAGAGCUCAACACAGCGUGGCAAAGAGGCGGUGGCUAGAAUUCC the figure was 0.08; with AGCAGAGCUCAACAUAGCGUGGCAAAGUGGCUGUGGCUAGACUGGC, 0.12.
With UGCAGAGCUCAACAGAGCGUGGCAAAGUGGCUGUUGCUAGACUGCC the figure was 0.01; with GGCAGAGCUCCACACAGCGUGGCAACGUGGCUGUGGAUAGACUGCC, 0.03.
With GGCAGAGGUCAACACUGCUUGGCAAAGUGGCUGCGGCUAGUCUGCC the figure was 0.01; with GGCAGAGCACGUCACAGCGUGGCAAAGUGGCUUUGGCUAGACUGCC, 0.01.
Take UGCAGAGCUCAACACAGCCUGUCAAAGUGGCUGUGACUACACUGCC: the self-cleavage is 0.03.
With GGCAAAGCUCAACACAGCGUGGCAUAGUGGCUGUCGCUAGACUUCC, the self-cleavage stood at 0.09.
With GGCAGAGGUCAACACAGCGUGGCAAAGUGGCUGUGGCCAGACUGCG the figure was 0.05; with GGCAGAGCCCAACACAGAGUGGCACAGUGGCUGUGGCUAGACUGCU, 0.02.
On to GGCAAAGCUCAACACUGCGUGGUAAAGUGGCUGUGGCUUGACUGCC, for which the self-cleavage is 0.
Regarding GGCAGAGCUCAAUACAGGGUGGCAAAGUAGCUGUGCCUAGACUUCC, the self-cleavage turned out to be 0.04.
On to GGCAGAGUUCAAUACAGCGUGGCAAGGUGGCUGUGGCUAGACUGCC, for which the self-cleavage was found to be 0.27.
GGCAGAGAUCAACACAGCGUAUGAAAGUGUGUGUGGCUAGACUGCC: the self-cleavage is 0.01.
For the variant GGCAGAGCUCAACACAGCGUGGCACAGUGGCUGUGGUUAAACUGCC, the self-cleavage is 0.16.
For GGCGGAGCUCAACACGGCGUGGCAAAGUGGCUGUGGCUAAACUGCC, the self-cleavage is 0.
In the case of GGCAGAGCUCAACACAGCGUGGCUAAAUAGCGGUGGCUAGAAUGCC, the self-cleavage was determined as 0.01.
Take GGCAGAGCUCAACACAGCGUUGCAAAUUGGCUGCGGCAAAACUGCC: the self-cleavage came to 0.01.
In the case of GGCAGAGCUCAAUACAUCGUGGCAAAGCGGCUGUGGCUAGACUGCC, the self-cleavage is 0.04.
With GGCACAGCUCAACACAACGUAGCAAAAUGGCUGUGGCUAGACUGGC the figure was 0.02.
For the variant GGCAUGGCUCAACAAAGCGGGGCAAAGUGGCUGUGGCUAGACUGCC, the self-cleavage stood at 0.05.
In the case of GGCAGAGCUCAACACAGCGUGGCAAAGUGGGUGUGGCGAGAUUGCC it was 0.02; in that of GGCAGAGCUCAACACAGCGUGGCGAAGUGACUGUGGCUAGACUGCA, 1.22.
On to GGCAGCGCUCAACACAGCGAGGCAAAGUGGCGGUGGCUAGACUGCC, for which the self-cleavage was found to be 0.02.
With GGCAGAGCUCAACACAGCGUGGUAAAGUGGCUGUAGCUAGACUGAC the figure was 0.1; with GGCAUAGCACAACACAGCGUCGCAAAGUGGCUAUGGCUAGACUGCC, 0.04; with GGCAGAGCUCGACACAGCGUGGCAAAGUAGUUGUGGCUAGACUACC, 0.06.
Take GGCAAAGCUCAACACAGCGUGGCAGAGUUGCUGUGGCUAGACUGCC: the self-cleavage worked out at 0.13.
On to GGCAGAGCUCAACACAGCGUGGCAAAUUGGCUGUGGCUAGAAGGCC, for which the self-cleavage came out at 0.04.
GGCAGAGCUCAGCACAGCGUGGCAAAGAGGUUGUGGCUAGACUGCC: the self-cleavage worked out at 0.01.
In the case of GGCAGAGCUCAAUACAGCGGGGCAAAGUGGCUUUGGCUAGACUGCC it was 0.08; in that of GGCAGAGUUCAACACAGCGUGGCAAAGUGGCUGUGGCUAGAAGGCC, 0.14.
For the variant AGCAGAGCUUAACAAAGCGUGCCAAAGUGGCUGUGGCUAGAUUGUC, the self-cleavage amounted to 0.02.
CCCAGUGCUCAACACAGCGUGGCAAAGUGGCUGUGGCUAGACUCCC: the self-cleavage was 0.13.
GGCAGAGCUAAAUACAGCGUGUCAAAGUGGCUGUGGCUAGACUGCC: the self-cleavage turned out to be 0.1.
In the case of GGCAUAGCUCAACACAGCGUGGCAAAGUGACUGUGGCUAGAAUGCC it was 1.66; in that of GGCAGAGCUCAACACAGCGUAGCAAAGUGGCUGUGGGAAGACUGCC, 0.07; in that of GGCAGAGCUCAACACAGCCUGGCAAAGUGGCUCUGGGUAGACUGCC, 0.05.
Turning to GGCAGAGCUCAAAAGAGCGCGGCAAAGUGGCUCUGGCUAGACUGCG, the self-cleavage turned out to be 0.01.
For GGCUGAGCUCUGCACAGCGUGGCAAAGUGGCUGUUGCUAGACUGCC, the self-cleavage is 0.03.
On to GGCAGAGCUCAAAAUAGCGUGGCAAGGUGGGUGUGGGUAGACUGCC, for which the self-cleavage turned out to be 0.06.
Consider GGCAGAGUUCAACACAGCGUCGCAACGUGGCUGUGGCUAGACUGCC, for which the self-cleavage amounted to 0.05.
On to GGCAGAGCUCAACACAGUGUGGCAGAGUGGCUUUGGCUAGACUGCC, for which the self-cleavage turned out to be 0.02.
Consider GGCAGAGCUCUACACAGCGUGGCAAAAUGGCUGUUGCUAGACUGCC, for which the self-cleavage came out at 0.03.
Regarding GGGAGAGCUAAACAUAGCGUGGCAAAGUGGCUGUGGCUAGACUGCC, the self-cleavage amounted to 0.03.
As for GGCAGAGCGCAUCACAGCGUGGCAAAGUGGCUGGGGCUACACUGCC, the self-cleavage came to 0.
In the case of GGCAAAGCUCACCACAGCGUUGCAAAGUGGCUGUAGCUAGACUGCC it was 0.05; in that of GGCUGAGCUCAACAAAGCGUGGCAAAGUGGCUAUGGCUUCACUGCC, 0.01.
As to GUCAGAGCUCACCACAGCUUGGCAAAGUGGCUGUGGCUAGACUGCC, the self-cleavage is 0.04.
Regarding GGCAGAGCUCAACACCGCUUGGCAACGUGUCUGUGGCUAGACUGCC, the self-cleavage turned out to be 0.01.
